PubChem BioAssay AID504832 (National Center for Advancing Translational Sciences (NCATS), 2011)
The campaign covered roughly 310,000 compounds. About 18,000 (5.8%) were called active. This list was built around the results that the source calls inconclusive (neither active nor inactive); the mix of calls is not that of the screen. The call rests on the fitted dose curve; in most records, active means well fitted inhibition curve with a large enough effect; inconclusive means small, poorly fitted or top-dose-only effect, or another doubt; inactive means no such curve, though single readings can be large or run the other way. No potency is given beside an inconclusive call; the fits are too rough.

experiment: Primary qHTS for delayed death inhibitors of the malarial parasite plastid, 48 hour incubation; details: P. falciparum luciferase growth in erythrocytes; series mostly up to 28.7 µM
How it was run: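 In quantitative HTS format, infected erythrocytes bearing luciferase-reporter parasites were treated for a single generation at 37 C. Luminescence after adding detection reagent served as the growth measure.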
Potency means the concentration at half of the fitted maximal effect; tags describe the fitted curve by direction and shape.

Row | SMILES | Potency
1 | Cc1cccn2c(=O)c3cc(C#N)c(=NC(=O)c4ccco4)n(Cc4ccco4)c3nc12 | inconclusive [inhibitor, partial curve, poor fit]
2 | COC(=O)CC1COc2ccccc2N1S(=O)(=O)c1ccc(OC)cc1 (centres undefined) | inconclusive [inhibitor, single point]
3 | CC(=O)Nc1cccc(NC(C)=O)n1 | inconclusive [inhibitor, single point]
4 | Cc1c(C)c(C)c(CN2CCCC2)c(C)c1C | inactive
5 | CCNc1nnc(CSc2nc3ccccc3s2)s1 | inactive
6 | COc1ccccc1C1CC(c2ccc(Cl)cc2)Nc2nc(N)nn21 (centres undefined) | inconclusive [inhibitor, partial curve]
7 | COc1cc(OC)cc(C(=O)N2CCN(c3ccc(N4CCOCC4)nn3)CC2)c1 | inconclusive [inhibitor, partial curve, poor fit]
8 | CCN(CC)C(=O)C(=O)c1cn(CC(=O)N2CCc3ccccc3C2)c2ccccc12 | inconclusive [inhibitor, single point]
9 | CCCC1=C(C(=O)OCC)C2(C(=O)Nc3ccc(C)cc32)C(C#N)=C(N)O1 (centres undefined) | inconclusive [inhibitor, single point]
10 | CCCCSc1cc(=O)n(-c2ccccc2)nc1C(=O)OCC | inconclusive [inhibitor, single point]
11 | Cc1ccc(C(=O)N[C@@H](C)CN2C3=NC[C@H](C(C)C)N3C[C@H]2Cc2ccc(O)cc2)cc1Br | inconclusive [inhibitor, full curve, poor fit]
12 | O=C(Nc1cccc2c1CCCC2)c1cc([N+](=O)[O-])ccc1Cl | inconclusive [inhibitor, single point]
13 | CCC(C)n1c(-c2cccc(S(=O)(=O)N(CC)CC)c2)n[nH]c1=S (centres undefined) | inconclusive [inhibitor, single point]
14 | COCCNC(=O)/C(C#N)=C/c1cccc(OCc2ccccc2)c1 | inconclusive [inhibitor, single point]
15 | O=C(CSc1nnnn1-c1ccc(O)cc1)N1N=C(c2ccc3ccccc3c2)CC1c1ccccc1 (centres undefined) | active: 2.33 µM
16 | COC(=O)c1c(NC(NC(=O)c2ccccc2)(C(F)(F)F)C(F)(F)F)sc2c1CCN(C)C2 | active: 8.28 µM
17 | CCOC(=O)N1N=C(C)CC1(O)c1ccc(Cl)cc1 (centres undefined) | inconclusive [inhibitor, single point]
18 | N#Cc1ccccc1S(=O)(=O)N1CCN(C(=O)CN2CCCC2c2cccs2)CC1 (centres undefined) | active: 9.28 µM
19 | CCOC(=O)C1CCN(C(=O)c2sc3nc(-c4ccc(F)cc4)cn3c2C)CC1 | inconclusive [inhibitor, partial curve, poor fit]
20 | O=C(Cc1nc2ccccc2[nH]1)c1cccc([N+](=O)[O-])c1 | active: 11.7 µM
21 | O=C(NC(=S)Nc1ccccc1N1CCCC1)c1cccs1 | inconclusive [inhibitor, single point]
22 | CC(C)CN(C(=O)CN1CCN(c2ccccc2O)CC1)c1c(N)n(CC(C)C)c(=O)[nH]c1=O | inactive
23 | COc1ccccc1C(=O)NCCn1cc(SCC(=O)Nc2nnc(C)s2)c2ccccc21 | inconclusive [inhibitor, single point]

Row | SMILES | Potency
24 | O=C(COc1ccc(Cl)cc1Br)N1CCN(c2ncccn2)CC1 | inconclusive [inhibitor, single point]
25 | Cc1ccc(/C=N/NC(=O)c2ccco2)cc1 | inactive
26 | CC1(C)OC(=O)C(=CNNc2c(Cl)cc(Cl)cc2Cl)C(=O)O1 | inactive
27 | COc1ccc(S(=O)(=O)N2CCOCC2)cc1NC(=O)CCNC(=O)c1ccc(Br)cc1 | inconclusive [inhibitor, single point]
28 | O=C(C1=COCCO1)N1CCN(S(=O)(=O)c2cccc(Cl)c2Cl)CC1 | inconclusive [inhibitor, partial curve]
29 | Cc1sc2ncnc(SCC(=O)Nc3ccc(CN4CCCC4)cc3)c2c1C | inconclusive [inhibitor, single point]
30 | CCc1ccc(OCC(=O)O/N=C(\N)c2cccnc2)cc1 | inactive
31 | CCc1ccc(NC(=O)C[n+]2cc(-c3ccc(C)cc3)n3c2CCC3)cc1 | active: 2.94 µM
32 | COc1cccc(OC)c1CNC(=O)C1CCC(=O)N(CC2CCCCC2)C1 (centres undefined) | inconclusive [inhibitor, partial curve]
33 | CC(C)Oc1ccc(-c2cc(C(=O)NCCN3CCOCC3)c3ccccc3n2)cc1 | active: 2.33 µM
34 | Cc1ccccc1CN1CCN(S(C)(=O)=O)CC1 | inactive
35 | Cc1nc(Nc2ccc(Cl)c(Cl)c2)sc1C(=O)Nc1ccccc1 | inconclusive [inhibitor, single point]
36 | Brc1ccc(-c2ccc(C3Nc4cccc5cccc(c45)N3)o2)cc1 | inconclusive [inhibitor, single point]
37 | CC(C)=CCSc1nnc([C@@H](N)Cc2c[nH]c3ccccc23)o1 | inconclusive [inhibitor, single point]
38 | Nc1nc(NCCCN2CCOCC2)nc(Nc2ccccc2F)c1[N+](=O)[O-] | inconclusive [inhibitor, single point]
39 | CCCCC1CCC(C(=O)OC(C)C(=O)Nc2ccc(NC(C)=O)cc2)CC1 (centres undefined) | inconclusive [inhibitor, single point]
40 | CCOc1ccc(NS(=O)(=O)c2ccc(C(=O)NCC(c3ccc(OC)cc3)N3CCCC3)cc2)cc1 (centres undefined) | active: 13.1 µM
41 | Cc1ccc2nc(-c3ccc(NC(=O)COC(=O)c4ccco4)cc3)sc2c1 | inactive
42 | CC(C)(C)C1CCc2c(sc(NC(=O)c3ccco3)c2C(N)=O)C1 (centres undefined) | inactive
43 | O=C(N/N=C/c1cc2c(cc1Cl)OCO2)c1cccc(Br)c1 | inconclusive [inhibitor, single point]
44 | Cn1cccc1CNC(=S)Nc1ccccc1Cl | inactive
45 | CSCC[C@H](NC(=O)COc1cc2c(c3oc(=O)c(C)c(C)c13)CCC(C)(C)O2)C(=O)O | inactive
46 | CCO[C@@H]1OC(C(=O)N2CCOCC2)=C[C@H](c2ccc(C(F)(F)F)cc2)[C@H]1CCCO | inactive

Row | SMILES | Potency
47 | CCOC(=O)c1cnc2c(OC)cccc2c1N1CCN(c2ccccc2OC)CC1 | active: 7.38 µM
48 | CCCCC(=O)Nc1c2c(nn1-c1cccc(C)c1C)CS(=O)(=O)C2 | inconclusive [inhibitor, partial curve, poor fit]
49 | COc1ccc(S(=O)(=O)N2CCOCC2)cc1NC(=O)CN1C(=O)NC2(CCCC2)C1=O | inactive
50 | CC(C)OC(=O)c1nnn(-c2nonc2N)c1CSc1ccccn1 | inconclusive [inhibitor, partial curve, poor fit]
51 | CC(C)C[C@H](NC(=O)c1nc[nH]c1C(=O)N1CCc2ccccc2C1)C(=O)OC(C)(C)C | inconclusive [inhibitor, partial curve]
52 | COc1ccccc1N(C)S(=O)(=O)c1ccc(C(=O)O)cc1 | inactive
53 | Clc1ccc(-n2nnnc2CN2CCCCC2)cc1Cl | inconclusive [inhibitor, single point]
54 | CC(CCCC(C)(C)O)NC(=O)c1ccc(OC2CCN(C(=O)C3CC3)CC2)cc1 (centres undefined) | inactive
55 | CN(C(=O)CSc1nncc2ccccc12)C1CCCCC1 | inconclusive [inhibitor, single point]
56 | CCOC(=O)C1(CCc2ccccc2)CCN(C2Cc3ccccc3C2)CC1 | inconclusive [inhibitor, single point]
57 | COc1ccc(OC)c(Nc2nc(C)nc3c2oc2ccccc23)c1 | inconclusive [inhibitor, partial curve, poor fit]
58 | O=C(NC1(O)C(=O)c2ccccc2C1=O)c1ccc(C(F)(F)F)cc1 | inactive
59 | COc1cc(NS(=O)(=O)c2c(C)[nH]c(C)c2C(=O)N2CCCCC2)cc(OC)c1OC | inconclusive [inhibitor, partial curve, poor fit]
60 | O=C(CCNC(=O)c1ccc(Cl)cc1)NCc1cccc(C(F)(F)F)c1 | inconclusive [inhibitor, single point]
61 | CCC1=NN(C(=O)Cc2ccccc2)C(O)(c2ccncc2)C1 (centres undefined) | inconclusive [inhibitor, single point]
62 | CC(=O)Nc1sc2c(c1C(c1cccs1)N1CCOCC1)CCCC2 (centres undefined) | inconclusive [inhibitor, full curve, poor fit]
63 | CS(=O)(=O)c1ccc(Sc2nc3ccccc3s2)c([N+](=O)[O-])c1 | active: 13.1 µM
64 | CCCc1ccc(OCCNC(=O)CC)cc1 | inactive
65 | COc1ccccc1NC(=O)NC1(C(=O)N2CCC(C)CC2)CCCCC1 | inactive
66 | O=C(C1CCN(c2nnc(N3CCCC3=O)s2)CC1)N1CCN(Cc2ccc3c(c2)OCO3)CC1 | inconclusive [inhibitor, single point]
67 | COc1cc2c(cc1OC)C(c1ccccc1OC(C)C)CC(=O)N2 (centres undefined) | inconclusive [inhibitor, single point]
68 | CCOC(=O)C1CCN(C(=O)Cn2cc(C(=O)c3ccco3)c3ccccc32)CC1 | inconclusive [inhibitor, single point]
69 | CCC(=O)N1CCc2cc(S(=O)(=O)NCCC(=O)Nc3cc(C)cc(C)c3)ccc21 | inconclusive [inhibitor, full curve]
